According to PubChem BioAssay AID651820 (National Center for Advancing Translational Sciences (NCATS), 2012):
About 12,000 (3.5%) of roughly 340,000 compounds were called active. The shares of active, inactive and inconclusive entries below differ from those in the screen. Calls come from the whole dose curve; as a rule, active = well fitted inhibition curve with a large enough effect; inconclusive = small, poorly fitted or top-dose-only effect, or another doubt; inactive = no such curve, though single readings can be large or run the other way. No potency is given beside an inconclusive call; the fits are too rough.

assay: qHTS Assay for Inhibitors of Hepatitis C Virus (HCV); conditions: Huh7.5.1 HCVcc-Cre (HCVcc is cell-culture hepatitis C virus) infection, luciferase reporter, 44 h; series mostly up to 41.8 µM
Method in brief: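 Seed cells (1,000/well) for 4 h; treat with compound and infect with HCVcc-Cre, moi about 0.5. Incubate 44 h, then detect luciferase activity.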
Potency is the fitted concentration of half-maximal effect; tags give direction and shape of the fitted curve.

Row | SMILES | Potency
1 | CCN1CCN(c2cc(C(C)(C)C)nc3c(-c4ccccc4)c(C)nn23)CC1 | active: 3.98 µM
2 | CC(=O)c1c(C)n(Cc2ccccc2)c2ccc(O)cc12 | inconclusive [inhibitor, partial curve]
3 | C#Cc1ccc([C@H]2C=C(C(=O)N3CCN(Cc4ccccc4)CC3)O[C@@H](OCc3ccc(CO)cc3)C2)cc1 | inconclusive [inhibitor, single point]
4 | CC1CCCCN1Cc1c(O)ccc2c(=O)c(-c3ccccc3)coc12 (stereo unspecified) | inconclusive [inhibitor, partial curve]
5 | Cc1cc(OCc2cc(C(=O)N3CCN(C)C(=O)[C@@H]3C)no2)cc(C)c1Cl | active: 12.6 µM
6 | CN([C@@H](Cc1ccc(OS(=O)(=O)c2cccc3cnccc23)cc1)C(=O)N1CCN(c2ccccc2)CC1)S(=O)(=O)c1cccc2cnccc12 | active: 2.82 µM
7 | O=C(OCC(=O)N1N=C(c2ccc(Cl)cc2)CC1c1ccco1)c1ccccc1O (stereo unspecified) | inconclusive [inhibitor, partial curve]
8 | Cc1ccc(OCC(=O)Nc2c(C)nn(-c3ccccc3)c2C)c(Br)c1 | inconclusive [inhibitor, full curve]
9 | O=C(NCCCN1CCCC1)c1ccc2c(Cl)c3c(nc2c1)CCCC3 | active: 11.2 µM
10 | CCCn1c(C)cc(=O)c2cc(NC(=O)c3ccccn3)ccc21 | inconclusive [inhibitor, single point]
11 | O=C(Cc1cccs1)Nc1nnc(-c2ccc(F)cc2)s1 | inconclusive [inhibitor, single point]
12 | c1ccc2c(N3CCOCC3)c3c(nc2c1)CCC3 | inconclusive [inhibitor, partial curve]
13 | CCc1ccc(NC(=O)c2ccc(F)c(S(=O)(=O)N(CC)c3ccccc3)c2)cc1 | inconclusive [inhibitor, full curve]
14 | COc1ccccc1NC(=S)Nc1cccc(F)c1 | inconclusive [inhibitor, single point]
15 | C[C@@H]1C(c2ccc(F)cc2)=NN(c2ccc(Br)cc2)[C@H]1C(=O)N1CCOC1=O | inconclusive [inhibitor, full curve]
16 | Cn1cccc1C(=O)Nc1ccc(Cl)c(S(=O)(=O)N2CCCCC2)c1 | inconclusive [inhibitor, partial curve]
17 | O=C1CC(c2ccco2)CC2=C1C1c3ccccc3C(=O)N1c1ccccc1N2 (stereo unspecified) | inconclusive [inhibitor, single point]
18 | Clc1ccc(-n2ncc3c(N4CCCCCC4)ncnc32)cc1 | inactive
19 | CCCN(CCC)CCNC(=O)CCC(=O)Nc1ccc2nc(N3CCOCC3)cc(C)c2c1 | inconclusive [inhibitor, full curve]
20 | COc1ccc(Cl)cc1NC(=O)CCCC(=O)c1ccccc1 | inconclusive [inhibitor, single point]
21 | COc1ccc(CCNC(=O)COC(=O)/C=C/c2cc(OC)c(OC)c(OC)c2)cc1OC | inconclusive [inhibitor, partial curve]
22 | COc1ccc(C)cc1NC(=O)NCCCCc1ccccc1 | inconclusive [inhibitor, partial curve]

Row | SMILES | Potency
23 | CCN1CCN(CCCOc2ccccc2-c2ccccc2)CC1 | inconclusive [inhibitor, single point]
24 | Cc1nonc1CC(=O)N1CCCC(C(=O)c2ccc(Cl)cc2)C1 (stereo unspecified) | inactive
25 | O=C1c2ccccc2NC(c2ccc(-c3ccc(Br)cc3)o2)N1O (stereo unspecified) | inconclusive [inhibitor, single point]
26 | CCOc1ccc(C(C)=O)cc1COC(=O)c1ccccc1C(=O)N(C)Cc1ccccc1 | inconclusive [inhibitor, partial curve]
27 | CCN(CC)c1ccc(S(=O)(=O)N2CCCCC2)cc1NC(=O)CSCc1c(C)noc1C | inconclusive [inhibitor, single point]
28 | COc1ccc(C(=O)n2nc(-c3ccccc3)nc2SC)cc1 | inconclusive [inhibitor, single point]
29 | CC(=O)N1c2c(cc(Br)cc2S(=O)(=O)N2CCN(c3ccccc3F)CC2)CC1C (stereo unspecified) | inconclusive [inhibitor, partial curve]
30 | COc1ccc(NS(=O)(=O)c2cc([N+](=O)[O-])ccc2N/N=C/c2c(C)[nH]c3ccccc23)cc1 | active: 11.2 µM
31 | CC(C)(CN1CCN(C(c2ccccc2)c2ccccc2)CC1)NS(=O)(=O)c1ccccc1 | inconclusive [inhibitor, single point]
32 | COc1ccc(N=Nc2nc(-c3ccccc3)c(-c3ccccc3)[nH]2)cc1 | inconclusive [inhibitor, partial curve]
33 | O/C=c1\ccc2cccc3nc(C(F)(F)F)nc1c23 | inconclusive [inhibitor, partial curve]
34 | O=C(Cn1c(-c2cncs2)nc2ccccc21)NCc1ccccc1 | inconclusive [inhibitor, partial curve]
35 | CCOc1ccc(-c2nnc(-c3ccco3)o2)cc1OCC | inconclusive [inhibitor, partial curve]
36 | CC(C)S(=O)(=O)N1CCN(c2ccnc3cc(Cl)ccc23)CC1 | inactive
37 | COc1ccc(CCNC(=O)CC(c2ccccc2)c2cccc(C)c2O)cc1OC (stereo unspecified) | inconclusive [inhibitor, partial curve]
38 | CN(C)S(=O)(=O)c1ccc2c(c1)C(=NO)c1cc(S(=O)(=O)N(C)C)ccc1-2 | inactive
39 | O=C(NCC(=O)N(Cc1cccs1)C(C(=O)NC1CCCCC1)c1ccco1)c1ccco1 (stereo unspecified) | inactive
40 | COc1ccc(-c2cc(C(=O)N3CCN(c4ccc(F)cc4)CC3)no2)cc1OC | inconclusive [inhibitor, single point]
41 | CCN1C(=O)[C@H]2[C@@H](c3ccc(-c4ccc(F)cc4)c(OC)c3)N[C@@](Cc3ccccc3)(C(=O)OC)[C@H]2C1=O | inconclusive [inhibitor, single point]
42 | C/C(=N\NC(=S)Nc1ccccc1C)c1cc2ccccc2o1 | inconclusive [inhibitor, single point]
43 | CCCSc1sc(C(=O)OC)c(-c2cccs2)c1C#N | inconclusive [inhibitor, partial curve]
44 | COc1ccc(/C=C2\SC(=S)N(CCCC(=O)N3CCN(C)CC3)C2=O)cc1OC | inactive

Row | SMILES | Potency
45 | COc1ccc(Cl)cc1C(=O)NC(=S)Nc1ccccc1N1CCOCC1 | inactive
46 | CC(C)OC(=O)Nc1ccc2c(c1)N(C(=O)N1CCN(C)CC1)c1ccccc1CC2 | inconclusive [inhibitor, single point]
47 | CCc1ccccc1OCC(=O)Nc1cc(S(=O)(=O)N2CCOCC2)ccc1N1CCCCC1 | active: 11.2 µM
48 | COc1cc(/C=C/C(=O)OCC(=O)c2c(N)n(C)c(=O)n(C)c2=O)ccc1OCC#N | inconclusive [inhibitor, full curve, poor fit]
49 | COc1cc(OC)cc(-c2c(C#Cc3ccsc3)c3cc(-c4ccc(OC)cc4F)ccc3n2C)c1 | inactive
50 | CC(C)c1ccc(N(CC(=O)NC2CCCCC2)C(=O)CCC(=O)Nc2ccccn2)cc1 | inactive
51 | COc1ccc2c(c1)CCC/C2=N\NC(=O)c1ccoc1C | inactive
52 | CCn1cc(C(=O)NCc2cccs2)c(=O)c2cc(S(=O)(=O)N3CCOCC3)ccc21 | inconclusive [inhibitor, single point]
53 | CCOc1cccc(-c2cc(=O)[nH][nH]2)c1 | inconclusive [inhibitor, single point]
54 | CCC(C(=O)NC1CCCCC1)N(C(=O)c1snc(C(N)=O)c1N)c1ccc(OC)cc1OC (stereo unspecified) | inconclusive [inhibitor, partial curve, poor fit]
55 | Cn1/c(=N\NC(=O)C2CCCCC2)sc2ccccc21 | inactive
56 | Cc1sc2ncnc(N3CCC(C(=O)Nc4ccc(Br)cc4Br)CC3)c2c1C | inconclusive [inhibitor, full curve]
57 | COc1ccc(SC[C@H](C)CN2CC[C@H](NC(=O)OCc3ccccc3)CCC2=O)cc1 | inconclusive [inhibitor, single point]
58 | CCCCCn1c(=O)[nH]c2cc(C(=O)NCCCN3CCCCC3C)ccc2c1=O (stereo unspecified) | inconclusive [inhibitor, full curve]
59 | CCCCNc1c(-c2ccc(SC(C)CC)cc2)nc2ccccn12 (stereo unspecified) | active: 22.4 µM
60 | O=C(CNCCN1CCOCC1)Nc1ccccc1Sc1ccccc1 | inactive
61 | COc1cccc(NC(=O)c2ccc(OC(F)(F)F)cc2)c1 | inconclusive [inhibitor, partial curve]
62 | COC(=O)c1ccc(CSc2nc3c(c(=O)n2-c2ccc(F)cc2)SCC3)o1 | inconclusive [inhibitor, partial curve]
63 | O=C(N/N=C/c1c[nH]c2ccccc12)c1cccc(O)c1 | inactive
64 | CS(=O)(=O)N(CC(=O)N/N=C/c1cc2c(cc1Br)OCO2)c1ccccc1Br | inconclusive [inhibitor, partial curve]
65 | O=C(Nc1ccn(Cc2ccccc2F)n1)c1ccc(COc2ccc(Br)cc2)cc1 | active: 6.31 µM
66 | COc1ccc(C2=CC(=O)C[C@H](c3ccc(F)cc3)C2)c(OC)c1 | inconclusive [inhibitor, single point]
